# Among all 320,000 compounds or so, about 7,600 (2.4%) were called active. Inconclusive means that the source gave no clear call. Such entries were picked first, then a sample of the others. Calls come from the whole dose curve; as a rule, active = well fitted activation curve with a large enough effect; inconclusive = small, poorly fitted or top-dose-only effect; inactive = no such curve, though single readings can be large or run the other way. Potencies of inconclusive entries are left out as doubtful fits.
# Assay: qHTS Assay for NPC1 Promoter Activators; note: nearly all actives have a fitted effect of over 60% in size;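 for activation: reporter is driven by a mutant NPC1 promoter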
# Conditions: Huh7 NPC1 promoter luciferase reporter, 24 h; series mostly up to 9.22 µM
# How it was run: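 Luminescence from an NPC1 promoter-driven luciferase reporter in stably transfected Huh7 cells was measured after 24 h compound treatment at 37 °C, followed by 10 min ambient incubation with luciferase detection reagent.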
# Potency is the fitted concentration of half-maximal effect; tags give direction and shape of the fitted curve.
row,SMILES,Potency
1,CC(C)(C)c1ccc(/C=N/NC(=O)C2CCCC2)cc1,"inconclusive [activator, partial curve]"
2,Nc1c(-c2ccc(Cl)cc2)nnn1-c1ccccc1,active: 3.16 µM
3,CC1CCN(C(=O)CCNS(=O)(=O)c2ccccc2)CC1,"inconclusive [activator, partial curve]"
4,Cc1nn(Cc2c(F)c(F)c(F)c(F)c2F)c(C)c1NC(=O)c1cccc(COc2ccccc2Cl)c1,active: 0.501 µM
5,CCN(CC(=O)Nc1c(F)cccc1F)C(=O)C1CC1C (configuration not stated),inactive
6,COc1ccc(/C=C/C(=O)c2ccc[nH]2)c(OC)c1OC,"inconclusive [activator, single point]"
7,O=C(N/N=C/c1ccccc1O)c1ccc2c(c1)OCO2,"inconclusive [activator, single point]"
8,O=C(COc1ccc(Br)cc1)NCCCNC(=O)c1ccncc1,inactive
9,Cn1ccsc1=NC(=O)c1ccc(OC(F)(F)F)cc1,"inconclusive [activator, partial curve]"
10,CNc1nnc(-c2cccc(N(C)C)c2)s1,"inconclusive [activator, single point]"
11,Nc1nc(N)nc(COc2ccccc2)n1,"inconclusive [activator, partial curve]"
12,CCOC(=O)C1(Cc2cccc(OC)c2)CCCN(C(=O)CCc2cccnc2)C1 (configuration not stated),inactive
13,CCCC(=O)Nc1ccc2c(c1)nc1n2CCSC1,"inconclusive [activator, partial curve]"
14,Cc1ccc(-c2ccc(CCC(=O)O)n2-c2cccc(C(=O)O)c2)cc1,"inconclusive [activator, single point]"
15,CCS(=O)(=O)c1ccc(O)c(NC(=O)/C=C/c2ccccc2)c1,"inconclusive [activator, partial curve]"
16,COc1ccccc1C(=O)NCC(=O)Nc1ccc2c(c1)CCC2,"inconclusive [activator, single point]"
17,O=C(Nc1cc(N2CCOCC2)ncn1)c1ccccc1,"inconclusive [activator, full curve, poor fit]"
18,CCSc1nnc([C@H](Cc2ccccc2)NC(=O)OC(C)(C)C)o1,inactive
19,CN(C)c1ccc(/C=N/Nc2nncc3ccccc23)cc1,active: 0.316 µM
20,Cc1ccc2nc3ccc(N4CCCCCCC4)nn3c(=O)c2c1,"inconclusive [activator, single point]"
21,Cc1nnc(N2CCCCC2)c2ccccc12,inactive
22,COc1cccc(NC(=O)N2CCCCCC2)c1,"inconclusive [activator, single point]"

# Reference: PubChem BioAssay AID485313 (National Center for Advancing Translational Sciences (NCATS), 2010)
